# Source: PubChem BioAssay (Tox21)
# Several values for one entry are separate records, joined by “and”; a condition that tells them apart may be missing. Identical values can stand only once. The shares of active, inactive and inconclusive entries below differ from those in the screen. For some assays here: Where the call is inconclusive, the potency comes from a doubtful curve fit. Activity calls are given as the source filed them. Unless noted, the call rests on the fitted dose curve.
# Columns and labels:
# [1] = qHTS assay to identify small molecule agonists of the endoplasmic reticulum stress response signaling pathway - cell viability counter screen (AID 1159517); conditions: ESRE-bla HeLa viability, CellTiter-Glo luminescence, 5 h; series mostly up to 61 µM; further: nearly all actives have a fitted effect of over 50% in size; further: potency means the concentration at half of the fitted maximal effect
# Outline: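 ESRE-bla HeLa cells (1,500/well) were plated overnight at 37 C and exposed to compounds for 5 hr. After the 2 hr beta-lactamase substrate read, CellTiter-Glo went into the same wells, and luminescence was read after 30 min at room temperature.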
# [2] = biological target: Retinoic acid receptor RXR-alpha (Homo sapiens) (UniProt P19793); assay: qHTS assay to identify small molecule agonists of the RXR signaling pathway (AID 1159527); conditions: HEK293T RXRa-UAS-bla, beta-lactamase ratio, 16 h; activation: at 76.8 µM (top of the series) unless noted; further: nearly all actives have a fitted effect of over 35% in size; further: potency means the concentration at half of the fitted maximal effect
# Sequence of UniProt P19793 (P19793 whole entry, looked up): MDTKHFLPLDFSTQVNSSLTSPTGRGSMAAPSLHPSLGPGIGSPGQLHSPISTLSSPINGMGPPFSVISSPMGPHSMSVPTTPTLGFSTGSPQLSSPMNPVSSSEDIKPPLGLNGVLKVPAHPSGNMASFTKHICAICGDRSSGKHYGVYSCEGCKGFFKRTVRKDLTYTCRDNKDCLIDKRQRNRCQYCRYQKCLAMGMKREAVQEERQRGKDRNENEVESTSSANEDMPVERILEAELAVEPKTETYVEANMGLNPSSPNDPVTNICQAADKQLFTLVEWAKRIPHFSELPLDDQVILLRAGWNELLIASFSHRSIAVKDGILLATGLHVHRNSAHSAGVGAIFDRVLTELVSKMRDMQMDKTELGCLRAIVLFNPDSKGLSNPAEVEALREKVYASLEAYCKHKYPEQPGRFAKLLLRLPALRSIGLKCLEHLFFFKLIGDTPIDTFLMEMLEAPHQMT
# Outline: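 Using 9-cis retinoic acid as the reference agonist, chemicals were tested in HEK 293T cells […] for 16 hr; substrate loading lasted 2 hr at room temperature.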
# [3] = qHTS assay to identify small molecule agonists of the farnesoid-X-receptor (FXR) signaling pathway - cell viability counter screen (AID 743218; active means well fitted curve in the direction sought with a large enough effect in the repeat runs; inconclusive means weak or mixed curves; inactive means no such curve, though single readings can be large; an effect the other way counts as inactive or inconclusive; further: on the % scale 0 is the no-effect control and ±100 the full control effect; nearly all actives have a fitted effect of over 45% in size); conditions: FXR-bla HEK293T viability, CellTiter-Glo luminescence, 16 h; viability change, negative = cytotoxic: at 62.6 µM (top of the series) unless noted
# Outline: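 Viability counter screen in the same wells: CellTiter-Glo luminescence, 30 min room-temperature incubation, measured after the beta-lactamase read. Cells were GeneBLAzer FXR-UAS-bla HEK 293T, compound-treated 16 h at 37C.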
# [4] = biological target: Vitamin D3 receptor (Homo sapiens) (UniProt P11473); assay: qHTS assay to identify small molecule agonists of the vitamin D receptor (VDR) signaling pathway (AID 743222); conditions: HEK293T VDR-UAS-bla, beta-lactamase FRET ratio, 16 h; activation: at 63.5 µM (top of the series) unless noted; further: potency means the concentration at half of the fitted maximal effect
# Sequence of UniProt P11473 (P11473 whole entry, looked up): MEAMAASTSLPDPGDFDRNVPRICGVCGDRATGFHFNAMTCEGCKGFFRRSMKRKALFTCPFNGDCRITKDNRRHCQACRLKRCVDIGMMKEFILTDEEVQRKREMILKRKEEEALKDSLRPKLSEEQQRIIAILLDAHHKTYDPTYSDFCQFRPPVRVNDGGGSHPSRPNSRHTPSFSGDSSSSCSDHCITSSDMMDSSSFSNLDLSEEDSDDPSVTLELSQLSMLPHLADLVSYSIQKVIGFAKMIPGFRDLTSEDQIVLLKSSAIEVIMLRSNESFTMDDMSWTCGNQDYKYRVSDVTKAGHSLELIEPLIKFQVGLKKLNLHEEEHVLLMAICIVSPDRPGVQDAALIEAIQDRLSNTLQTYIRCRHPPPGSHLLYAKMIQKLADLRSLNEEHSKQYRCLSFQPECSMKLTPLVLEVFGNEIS
# Outline: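 Agonist mode, beta-lactamase reporter: fluorescence from LiveBLAzer B/G FRET substrate (2 h, room temperature) read after 16 h compound treatment at 37 C of VDR-bla cells, which were pre-incubated 4 h after seeding.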
# [5] = qHTS assay to identify small molecule agonists of the vitamin D receptor (VDR) signaling pathway - cell viability counter screen (AID 743224; active means well fitted curve in the direction sought with a large enough effect in the repeat runs; inconclusive means weak or mixed curves; inactive means no such curve, though single readings can be large; an effect the other way counts as inactive or inconclusive; further: potency means the concentration at half of the fitted maximal effect; nearly all actives have a fitted effect of over 50% in size); conditions: VDR-bla HEK293T viability, CellTiter-Glo luminescence, 16 h; activity change, negative = cytotoxicity: at 62.6 µM (top of the series)
# Outline: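 Counter screen run in the same wells as the VDR-bla reporter assay: CellTiter-Glo luminescence, 30 min at room temperature, after 16 h compound treatment at 37C of cells pre-plated for 4 h.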
# [6] = qHTS assay to identify small molecule agonists of the AP-1 signaling pathway (AID 1159526); conditions: ME-180 (cervical carcinoma) AP-1-bla reporter, beta-lactamase FRET ratio, 5 h; activation: at 76.8 µM (top of the series) unless noted; further: potency means the concentration at half of the fitted maximal effect
# [7] = qHTS assay to identify small molecule antagonists of the peroxisome proliferator-activated receptor delta (PPARd) signaling pathway - cell viability counter screen (AID 743213; active means well fitted curve in the direction sought with a large enough effect in the repeat runs; inconclusive means weak or mixed curves; inactive means no such curve, though single readings can be large; an effect the other way counts as inactive or inconclusive; further: nearly all actives have a fitted effect of over 50% in size; further: potency means the concentration at half of the fitted maximal effect); conditions: PPARd-bla HEK293H viability, CellTiter-Glo luminescence, 17 h; viability change, negative = cytotoxic: at 62 µM (top of the series) unless noted
# Outline: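 HEK293H PPARd UAS-bla cells, 5 h pre-incubation, compound + L165041 300 nM final, 17 h 37 C; B/G FRET substrate 2 h RT; then CellTiter-Glo 30 min RT, luminescence.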
# [8] = biological target: Peroxisome proliferator-activated receptor delta (Homo sapiens) (UniProt Q03181); assay: qHTS assay to identify small molecule antagonists of the peroxisome proliferator-activated receptor delta (PPARd) signaling pathway (AID 743215; active means well fitted inhibition curve with a large enough effect in the signal ratio in the repeat runs, not every such curve was filed as active; inconclusive means weak or mixed curves, or effect the other way; inactive means no such curve, though single readings can be large or run the other way; the % refers to the signal ratio;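 further: cells stimulated with agonist L165041 at 300 nM final during compound exposure; on the % scale 0 is the no-effect control and ±100 the full control effect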); conditions: HEK293H PPARd-UAS-bla, beta-lactamase FRET ratio, antagonist, 17 h; ratio activity, negative = inhibition: at 62 µM (top of the series) unless noted
# Sequence of UniProt Q03181 (Q03181 whole entry, looked up): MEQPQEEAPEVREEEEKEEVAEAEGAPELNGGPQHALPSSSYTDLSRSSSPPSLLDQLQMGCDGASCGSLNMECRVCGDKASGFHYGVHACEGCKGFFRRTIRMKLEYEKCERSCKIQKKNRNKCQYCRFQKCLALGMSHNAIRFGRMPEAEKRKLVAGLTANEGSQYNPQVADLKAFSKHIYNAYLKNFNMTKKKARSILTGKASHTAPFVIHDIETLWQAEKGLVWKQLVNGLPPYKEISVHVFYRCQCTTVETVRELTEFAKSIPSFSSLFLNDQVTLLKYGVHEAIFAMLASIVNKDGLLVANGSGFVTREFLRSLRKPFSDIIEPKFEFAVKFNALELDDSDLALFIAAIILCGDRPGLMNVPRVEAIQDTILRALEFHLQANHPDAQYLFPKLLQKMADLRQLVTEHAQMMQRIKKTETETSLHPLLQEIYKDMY
# Outline: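 Agonist L165041 (300 nM final) added with compound to PPARd-bla HEK293H UAS-bla reporter cells; 17 h incubation at 37 C. Read-out: LiveBLAzer FRET substrate, 2 h at room temperature, fluorescence intensity.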
# [9] = biological target: Vitamin D3 receptor (Homo sapiens) (UniProt P11473); assay: qHTS assay to identify small molecule antagonists of the vitamin D receptor (VDR) signaling pathway (AID 743223; active means well fitted inhibition curve with a large enough effect in the signal ratio in the repeat runs, not every such curve was filed as active; inconclusive means weak or mixed curves, or effect the other way; inactive means no such curve, though single readings can be large or run the other way; the % refers to the signal ratio; further: on the % scale 0 is the no-effect control and ±100 the full control effect); conditions: VDR-UAS-bla HEK293T, beta-lactamase FRET ratio, 16 h; activity change, negative = inhibition: at 61 µM (top of the series) unless noted
# Outline: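 Inhibition of agonist-driven VDR signalling is scored in VDR-bla cells: 3 nM final 1alpha,25-dihydroxyvitamin D3 plus compound, 16 h at 37C, then beta-lactamase detection by FRET substrate fluorescence after 2 h.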
# [10] = qHTS assay to identify small molecule antagonists of the vitamin D receptor (VDR) signaling pathway - cell viability counter screen (AID 743225; active means well fitted curve in the direction sought with a large enough effect in the repeat runs; inconclusive means weak or mixed curves; inactive means no such curve, though single readings can be large; an effect the other way counts as inactive or inconclusive; further: nearly all actives have a fitted effect of over 50% in size; further: potency means the concentration at half of the fitted maximal effect); conditions: VDR-bla HEK293T viability, CellTiter-Glo luminescence, 16 h; viability change, negative = cytotoxic: at 61 µM (top of the series) unless noted
# Outline: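 Compounds were pinned onto VDR-bla HEK 293T cells together with 1-alpha,25-dihydroxyvitamin D3 at 3 nM final. After 16 h at 37C and 5% CO2 plus the reporter readout, cell viability was measured by CellTiter-Glo luminescence (30 min, room temperature).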
# [11] = qHTS assay to identify small molecule antagonists of the farnesoid-X-receptor (FXR) signaling pathway - cell viability counter screen (AID 743221; active means well fitted cell-killing curve with a large enough effect in the repeat runs, not every such curve was filed as active; inconclusive means weak or mixed curves, or effect the other way; inactive means no such curve, though single readings can be large or run the other way); conditions: FXR-bla HEK293T viability, CellTiter-Glo luminescence, 16 h; activity change, negative = cytotoxicity: at 62.6 µM (top of the series)
# Outline: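 Here viability was scored by luminescence after CellTiter-Glo addition to wells already read for beta-lactamase. Prior treatment: compound plus CDCA (50 uM final), 16 h, 37 C, HEK 293T FXR-bla cells.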
# [12] = qHTS assay to identify small molecule agonists of the RXR signaling pathway - cell viability counter screen (AID 1159529; active means well fitted curve in the direction sought with a large enough effect in the repeat runs; inconclusive means weak or mixed curves; inactive means no such curve, though single readings can be large; an effect the other way counts as inactive or inconclusive; further: nearly all actives have a fitted effect of over 50% in size; further: potency means the concentration at half of the fitted maximal effect); conditions: RXR-alpha-bla HEK293T viability, CellTiter-Glo, 16 h; series mostly up to 76.8 µM
# Outline: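 Compounds dissolved in DMSO were pinned onto HEK 293T cells carrying a beta-lactamase reporter under RXR-alpha control and incubated 16 hr. Cytotoxicity was then quantified by CellTiter-Glo luminescence.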
# [13] = biological target: Bile acid receptor (Homo sapiens) (UniProt Q96RI1); assay: qHTS assay to identify small molecule antagonists of the farnesoid-X-receptor (FXR) signaling pathway (AID 743217; active means well fitted inhibition curve with a large enough effect in the signal ratio in the repeat runs, not every such curve was filed as active; inconclusive means weak or mixed curves, or effect the other way; inactive means no such curve, though single readings can be large or run the other way; the % refers to the signal ratio; further: on the % scale 0 is the no-effect control and ±100 the full control effect); conditions: HEK293T FXR-UAS-bla, beta-lactamase ratio, CDCA-stimulated, 16 h; activity change, negative = inhibition: at 62.6 µM (top of the series) unless noted
# Sequence of UniProt Q96RI1 (Q96RI1 whole entry, looked up): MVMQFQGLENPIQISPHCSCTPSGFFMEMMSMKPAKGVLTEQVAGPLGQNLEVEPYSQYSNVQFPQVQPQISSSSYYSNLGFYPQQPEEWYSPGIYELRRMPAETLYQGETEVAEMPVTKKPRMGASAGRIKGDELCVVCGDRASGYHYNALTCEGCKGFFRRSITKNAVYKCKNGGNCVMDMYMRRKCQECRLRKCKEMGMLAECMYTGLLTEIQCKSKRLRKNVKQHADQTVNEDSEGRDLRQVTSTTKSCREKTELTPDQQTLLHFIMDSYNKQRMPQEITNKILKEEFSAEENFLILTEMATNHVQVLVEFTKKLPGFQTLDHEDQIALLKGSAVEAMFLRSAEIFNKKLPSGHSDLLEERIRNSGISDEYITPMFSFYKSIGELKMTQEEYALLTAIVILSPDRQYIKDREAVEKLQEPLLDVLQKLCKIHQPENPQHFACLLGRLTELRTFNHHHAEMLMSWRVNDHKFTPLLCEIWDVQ
# Outline: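 Antagonist mode: chenodeoxycholic acid at 50 uM final stimulates a UAS-driven beta-lactamase reporter in HEK 293T FXR-bla cells during 16 h, 37C compound exposure. Read-out is FRET substrate fluorescence after 2 h at room temperature.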
# [14] = qHTS assay to identify small molecule antagonists of the retinoid acid receptor (RAR) signaling pathway - cell viability counter screen (AID 1159551; active means well fitted curve in the direction sought with a large enough effect in the repeat runs; inconclusive means weak or mixed curves; inactive means no such curve, though single readings can be large; an effect the other way counts as inactive or inconclusive; further: on the % scale 0 is the no-effect control and ±100 the full control effect; nearly all actives have a fitted effect of over 35% in size); conditions: C3RL4 cells viability, ATP luminescence (CellTiter-Glo), 6 h; series mostly up to 92.4 µM
# Outline: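 Cytotoxicity counter screen: ATP content quantified by CellTiter-Glo luminescence in C3RL4 cells treated 6 hr at 37 C with compound and retinol (1 uM final). Cells plated at 1,000/well and cultured overnight before dosing.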
# [15] = biological target: Peroxisome proliferator-activated receptor delta (Homo sapiens) (UniProt Q03181); assay: qHTS assay to identify small molecule agonists of the peroxisome proliferator-activated receptor delta (PPARd) signaling pathway (AID 743212); conditions: HEK293H PPARd-UAS-bla, beta-lactamase FRET ratio, 17 h; activation: at 62.6 µM (top of the series) unless noted;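 further: HEK293H cells with PPARd UAS beta-lactamase reporter GeneBLAzer system; on the % scale 0 is the no-effect control and ±100 the full control effect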
# Outline: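 Beta-lactamase reporter readout: a ratiometric FRET signal from the LiveBLAzer substrate after 2 h at room temperature. Compound exposure at 37 °C in PPARδ-bla HEK293H cells driven by an upstream activator sequence.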
# [16] = biological target: Bile acid receptor (Homo sapiens) (UniProt Q96RI1); assay: qHTS assay to identify small molecule agonists of the farnesoid-X-receptor (FXR) signaling pathway (AID 743220; active means well fitted activation curve with a large enough effect in the signal ratio in the repeat runs, not every such curve was filed as active; inconclusive means weak or mixed curves, or effect the other way; the % refers to the signal ratio; further: on the % scale 0 is the no-effect control and ±100 the full control effect); conditions: HEK293T FXR-UAS-bla, beta-lactamase FRET ratio, 16 h; activation: at 62.6 µM (top of the series) unless noted
# Outline: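 FXR-UAS-bla HEK 293T cells carrying a UAS-driven beta-lactamase reporter were plated for 5 h at 37C/5% CO2, then exposed to DMSO-dissolved Tox21 10K compounds for 16 h at 37C. A LiveBLAzer B/G FRET substrate was loaded for 2 h at room temperature before fluorescence reading.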
# Tags describe the fitted curve by direction and shape or compound fluorescence and quenching.
smiles,measurement,setting,value
CCCCCC,Potency,[1],"inconclusive: 3.88 µM [rising, full curve, poor fit]"
same,Potency,[2],inactive
CCC(=O)O,Potency,[3],inactive
same,Potency,[4],inconclusive: 13.1 µM
same,Potency,[5],"inconclusive: 13.1 µM [cytotoxic, single point]"
same,Potency,[1],"inconclusive: 196 nM [cytotoxic, single point] and inactive"
same,Potency,[6],"inactive and inconclusive: 77.6 µM [activator, partial curve, poor fit]"
Cc1ccc(C(C)OC(=O)C2(C)CCC(C(=O)O)C2(C)C)cc1 (configuration not stated),Potency,[7],"inconclusive: 16.8 µM [cytotoxic, full curve, poor fit]"
same,"ratio activity, negative = inhibition",[8],inconclusive: -6.46%
same,"activity change, negative = inhibition",[9],inconclusive: 4.08%
same,Potency,[10],inactive
same,Potency,[1],inactive
same,Potency,[6],inactive
c1ccc2[nH]cnc2c1,"ratio activity, negative = inhibition",[8],inconclusive: -13.1%
same,"activity change, negative = inhibition",[9],inconclusive: -18.7%
same,Potency,[1],"inconclusive: 21.9 µM [cytotoxic, single point]"
same,Potency,[6],inactive
NS(=O)(=O)c1ccc(NC(=O)CCC(=O)O)cc1,"ratio activity, negative = inhibition",[8],inconclusive: 1.24%
same,"activity change, negative = inhibition",[9],inconclusive: 14.5%
same,Potency,[1],inactive
same,Potency,[6],inactive
CC(CO)(CO)CO,"ratio activity, negative = inhibition",[8],inconclusive: 7.26% [at 80.4 µM]
same,Potency,[3],inactive
same,Potency,[1],inactive
same,Potency,[6],inactive
CCCCCCCCCCCCCCCC(=O)OCC,Potency,[1],"inconclusive: 0.776 µM [cytotoxic, full curve, poor fit]"
same,Potency,[2],inactive
CC(C)Cc1ccc(CC(=O)O)cc1,"viability change, negative = cytotoxic",[7],inconclusive: -35.3% [cytotoxic]
same,"ratio activity, negative = inhibition",[8],inconclusive: -38.6%
same,Potency,[5],"inconclusive: 33.5 µM [cytotoxic, partial curve]"
same,Potency,[1],"inconclusive: 0.535 µM [cytotoxic, single point]"
same,Potency,[6],"inconclusive: 26.8 µM [activator, single point]"
Cc1c(C)c([N+](=O)[O-])c(C(C)(C)C)c([N+](=O)[O-])c1C,Potency,[11],inactive
same,Potency,[5],"inconclusive: 61.6 µM [cytotoxic, single point]"
same,Potency,[10],"inconclusive: 54.9 µM [cytotoxic, partial curve, poor fit]"
same,Potency,[1],"inconclusive: 43.6 µM [cytotoxic, partial curve, poor fit]"
same,Potency,[2],"inconclusive: 6.16 µM [activator, full curve, poor fit]"
same,Potency,[12],active: 43.6 µM
CCCCCCCCCCCCCO,Potency,[1],"inconclusive: 0.0029 µM [rising, full curve, poor fit]"
same,activation,[2],inconclusive: -32.1%
same,Potency,[12],"inconclusive: 16 µM [cytotoxic, partial curve, poor fit]"
Cc1cc(=O)n(-c2ccccc2)n1C,Potency,[13],inactive
same,"activity change, negative = inhibition",[9],inconclusive: -31% and inconclusive: -3.86%
same,Potency,[1],"inactive and inconclusive: 1.9 µM [cytotoxic, full curve, poor fit]"
same,Potency,[2],"inconclusive: 21.9 µM [activator, single point]"
same,Potency,[14],inactive
C=CC(=O)O,Potency,[11],inactive
same,Potency,[1],"inconclusive: 0.0715 µM [cytotoxic, full curve, poor fit]"
same,Potency,[2],inactive
same,Potency,[12],inactive
CCCCCCCC/C=C\CCCCCCCC(=O)OC[C@@H](O)[C@H]1OC[C@H](O)[C@H]1O,Potency,[10],"inconclusive: 0.0347 µM [rising, full curve]"
same,Potency,[1],inactive
same,Potency,[2],inactive
same,Potency,[12],inactive
CC[Si](OC(C)=O)(OC(C)=O)OC(C)=O,Potency,[15],inactive
same,Potency,[8],inactive
same,Potency,[1],"inconclusive: 195 nM [cytotoxic, full curve, poor fit] and inactive"
same,Potency,[2],"inconclusive: 30.9 µM [activator, partial curve, poor fit]"
O=C1CCc2ccccc2O1,"ratio activity, negative = inhibition",[8],inconclusive: 8.85%
same,Potency,[4],inconclusive: 0.195 µM [activator]
same,Potency,[10],"inconclusive: 2.2 µM [cytotoxic, single point]"
same,Potency,[1],"inconclusive: 61.7 µM [rising, single point]"
same,activation,[2],inconclusive: -28%
same,Potency,[12],"inconclusive: 39.1 µM [cytotoxic, partial curve, poor fit]"
Nc1ccc(C(=O)O)cc1,activation,[15],inconclusive: -2.13%
same,Potency,[8],inactive
same,Potency,[13],inactive
same,Potency,[16],inactive
same,Potency,[10],inactive
same,Potency,[1],"inconclusive: 6.74 µM [cytotoxic, single point]"
same,activation,[2],inconclusive: 16.2%
Clc1nnc(Cl)c2ccccc12,Potency,[11],inactive
same,Potency,[4],inactive
same,Potency,[10],"inconclusive: 0.547 µM [rising, full curve, poor fit]"
same,Potency,[1],"inconclusive: 0.194 µM [cytotoxic, full curve, poor fit]"
same,Potency,[2],"inconclusive: 2.74 µM [rising, full curve, poor fit]"
same,Potency,[12],"inconclusive: 13.7 µM [rising, partial curve, poor fit]"
